Results published in paper PMC12136788.
Some of the results follow.

B1: ENSG00000198589:be:win_7451|CDS|ENSG00000198589|bound_else_gene|NA|bound_elsewhere_windowed (ssRNA)
RNA: GGGAGUUCUACAGUCCGACGAUCUGAGUCCAUUGAUGUUCACAGACAAAGCCCAGCAGGAUGUUAUCAUGGUCCUCAAGUUUCCCUCCAACUCCCCUGUUACUCACGUGGCAGCCAACACCCAGCCUGGUUUGGCAACUCCCGCAACAGAGGAUUGAGCAUCA
B2: chrX:64224827:64225650:-|CDS|ENSG00000198881|control|control|control (ssRNA)
RNA: GGGAGUUCUACAGUCCGACGAUCCCUAGACCAUGGUGCAGAGGCCAACGUCAAAGCUAAACUACCAGUCUGGGCAUCAAACAUAGCUUCAUGUUCUGGCCCCCUCUAUUUGGCCGCAGUCUACGGGCACCUGGACUGUUUCCGCAACAGAGGAUUGAGCAUCA
B3: chr12:29451344:29451569:-|CDS|ENSG00000187950|control|control|control (ssRNA)
RNA: GGGAGUUCUACAGUCCGACGAUCGAAGCAGAGCUAGAAAAGCCUAGAGGCUUUUUUCCCACACCACGGUAUCUACUGGAUUAUAGAGGAAGACUGGAAUGUUCUUGGGUGCUCAGAGUUUCAGCAAGCAGUAUGGCAAAAUUUCAACAGAGGAUUGAGCAUCA
B4: chr17:44959692:44960187:-|three_prime_utr|ENSG00000131094|control|control|control (ssRNA)
RNA: GGGAGUUCUACAGUCCGACGAUCCCCGGCCCUCCCCGGCUAUGACGCCCCCGGCCCGUGCUCAACACCGCCUGGGCCACAGCUAGGCCCUCCCACCGGCUCGCUGCAGAGCCGGGCCCAGCGCGCCCUGUCCCCGUGCCAGGGCAACAGAGGAUUGAGCAUCA
B5: chr11:123805410:123806349:-|CDS|ENSG00000196099|control|control|control (ssRNA)
RNA: GGGAGUUCUACAGUCCGACGAUCGUGGGAGCCUUCCUGUCUGUGUUGUUUCCAACCAUUGUAGUGACAAGGCUACCUUACUGUAGGAAAGAAAUUAAUCAUUUCUUCUGUGACAUUGCCCCUCUUCUUCAGGUGGCCUGUAUACAACAGAGGAUUGAGCAUCA
B6: chr17:58089184:58089285:+|CDS_3pUTR|ENSG00000264364|msi1_unk|total|mutant (ssRNA)
RNA: GGGAGUUCUACAGUCCGACGAUCCAAAGCACUUCAUCUAUUUUUACUUGGGUCAAGUUGCAAUCCUCCUCUUCAAGUCAGGCCCGGUGGCCAUGGUGAAGGUGUCAGUGGCGGCGGCAGCGAUGGCAAGCAGGCGGCGUUGCUCAACAGAGGAUUGAGCAUCA
B7: chr19:32875924:32879378:-|three_prime_utr|ENSG00000121289|control|control|control (ssRNA)
RNA: GGGAGUUCUACAGUCCGACGAUCACCUGCUGGACGGCUGCGAUGUCUGCUCCUAUGACCUGAAGUCUCAUGCCCCCACCUGCUAGAAUCUGCGGGAGCCCGUGGUGUAGCCUCCUCUGGCCUGAAAGGUCUGCCUCACACAGGCAACAGAGGAUUGAGCAUCA
B8: chrX:47636291:47636398:-|3pUTR|ENSG00000126767|unk|total|mutant (ssRNA)
RNA: GGGAGUUCUACAGUCCGACGAUCGCCUGCCCUUGGGGAGAUGAGGGAGCCCUGUCUGCGUUUUUGGAUGUGAGCCGAAGAGUCCGUUUGUUUUGUUUUAUUAUUCCUGGCCAUACUCAGGGGUCCAGGAAGAAUUUGUACCAUCAACAGAGGAUUGAGCAUCA
B9: chr22:38736040:38736148:-|3pUTR|ENSG00000100242|msi1|FALSE|unique (ssRNA)
RNA: GGGAGUUCUACAGUCCGACGAUCCCCCAUGCAGAUGAAAAGGACGGGCAGGGUCUCCUGAGCAGCAGGUGGCUCGAGGCGGUUAGCAGGCUCCAGCAGCUCCCUUCUUCCUUCCCUCUGUGCCCGUGGCGUCUGCUUCCCAUCCAACAGAGGAUUGAGCAUCA
B10: chr12:62383855:62383964:+|CDS|ENSG00000135655|unk|FALSE|unique (ssRNA)
RNA: GGGAGUUCUACAGUCCGACGAUCGGUAGGACGUUUUGCACCUCAGUUCUCUGGAUAUCAGCAGCAAGACUGUCAAGAACUGUUAGCUUUCCUAUUAGAUGGAUUACAUGAGGAUUUGAAUAGAAUUAGGAAAAAACCAUAUAUCAACAGAGGAUUGAGCAUCA
B11: chr1:151291320:151291421:+|3pUTR|ENSG00000143373|unk|total|mutant (ssRNA)
RNA: GGGAGUUCUACAGUCCGACGAUCAAUAUUUUGUUAAUUCCUGUCUCUCCAACCUGAAGAAGAAGAGCAUUUGAGGAUUAUUCCCGUUAUUUGCAACCUCCCUUUGGGUUUGGCCCUGGAGUCCCCGCCGAGUGGACCCUCCAUCAACAGAGGAUUGAGCAUCA
B12: chr16:75660256:75661249:-|CDS|ENSG00000284484|control|control|control (ssRNA)
RNA: GGGAGUUCUACAGUCCGACGAUCCUGGGGCAAGAUAUGCAGGUAGGGGCUUCAAGCAACUCAGGACUCAAAUGCAGCAGUUUUAGGUUGAGGGGUCUACACGGGCCUGCCACAGGAACCCAAGGAUGCAGCUUUGCAAAGUAUCAACAGAGGAUUGAGCAUCA
B13: chr11:6768009:6768957:-|CDS|ENSG00000188124|control|control|control (ssRNA)
RNA: GGGAGUUCUACAGUCCGACGAUCCGUGACAGGUGUGACUUUCCUCUUGCUCCCCAUUUCUGCCAUUGUGGCCUCCUACACACUAGUCCUAUUCACUGUGCUUCGUAUGCCAUCAAAUGAGGGGAGGAAGAAAGCCCUUGUCACCAACAGAGGAUUGAGCAUCA
B14: chr10:133362484:133362867:-|three_prime_utr|ENSG00000127884|control|control|control (ssRNA)
RNA: GGGAGUUCUACAGUCCGACGAUCAACCAGCUGCCCCUGCUUCACACCUCUGCUUGGAGAGGACAAGUGCAGCCUGUCAGUUUUAGAAGCAAGUAAAUCAUCCUCUUUUCAAGAGCAGUGUCCGUGGUGUGCAGUUCCUCUCCACAACAGAGGAUUGAGCAUCA
B15: chr3:149738563:149738664:-|3pUTR|ENSG00000114744|unk|total|mutant (ssRNA)
RNA: GGGAGUUCUACAGUCCGACGAUCUGGAUUAUUAUGGGUCCUUGAUAAAUUCUCAAAGCCUUUUUUUUUGUUCAUCUCUAAAACCGGAAUACCGGAUUACCUACCACAUUGACUCGUAAGGACUAUAUGAGACCAUGUAUACCGCAACAGAGGAUUGAGCAUCA
B16: chr5:136063637:136063821:+|3pUTR|ENSG00000120708|msi1|total|mutant (ssRNA)
RNA: GGGAGUUCUACAGUCCGACGAUCUGUCAAAUGUGUCUCACAUCUACACGUGGCUUGGAGGCUUUUAUGGGGCCCUGUCCAGGCCGAAAAGAAAUGGUAUGCCGAGCUCCGAUUUCCCUAUUGUGACAGAGCCAUGGUGUGUUUCAACAGAGGAUUGAGCAUCA
B17: chr10:110135209:110135310:+|3pUTR|ENSG00000148700|msi1|total|mutant (ssRNA)
RNA: GGGAGUUCUACAGUCCGACGAUCCUCUCUAUUGGAAGAUUUUUUUAAUGUUCUACAUCAUUUAUGUUGUAUUACAAUGUAUGCCGAAACCGUAACCUGUGAACUAUGCUUUUCCAUAACUUUUUAAAAAUAUAUAUAUCUAAACAACAGAGGAUUGAGCAUCA
B18: ENSG00000198589:be:win_3951|CDS|ENSG00000198589|bound_else_gene|NA|bound_elsewhere_windowed (ssRNA)
RNA: GGGAGUUCUACAGUCCGACGAUCUUUGCUCACUGAUCUAUUAUUUUCAAUAGAAACAGAUAUACAGAUGUGGAGAAGCCAUUCAACAAAGACAGUUAUGGACUUCGUGAAUAGCAGUGAUAAUGUCAUCUUUGUACACAACACCAACAGAGGAUUGAGCAUCA
B19: ENSG00000107863:be:win_1151|CDS|ENSG00000107863|bound_else_gene|NA|bound_elsewhere_windowed (ssRNA)
RNA: GGGAGUUCUACAGUCCGACGAUCUAGACUGGAAAAACUAUAAAACUUACAAAGAGUAUAUUGAUAACAGACGAUUGCACAUAGGUUGUCGGACAAUACAAGAAAGAUUAGAUAGUUUAAGAGCAGCAUCUCAAAGCACGACAGCAACAGAGGAUUGAGCAUCA
B20: chr6:43013266:43013367:-|CDS|ENSG00000124733|msi1|total|mutant (ssRNA)
RNA: GGGAGUUCUACAGUCCGACGAUCAUCCCUGUCCUACCGCCUCCCUGUUCUUGCAGCCCCUGCCCGGAUGGCAACAGCCGUUCCCGGAGGAGACACCAUGGGCCCUGAGCGUAUCUUCCCCAAUCAGACUGAGGAACUGGGACACAACAGAGGAUUGAGCAUCA
B21: chr22:36281679:36281692:-|3pUTR|ENSG00000100345|msi1_unk|total|mutant (ssRNA)
RNA: GGGAGUUCUACAGUCCGACGAUCUCUUGUGUCUACUCCCGGACUGGGCCCGAGGGUGGUUUACCUGCACCGUUGACUCAGUACCGUUUAAAAAUCUGCCACCUGCACAGGUAUUUUUGAAAGCAAAAUAAGGUUUUCUUUUUUCAACAGAGGAUUGAGCAUCA
B22: chr8:9779869:9779970:+|3pUTR|ENSG00000173273|msi1|total|mutant (ssRNA)
RNA: GGGAGUUCUACAGUCCGACGAUCGGAAUUUCCCGCUUUUCAAGCAGCAUAAGCCGAAUCAACAUCCGGAUGUUUUCAUGAAACCGCAUCCUUAUACUUCUUUGAGCUUGAUGUCCGUGGCCCGACUGAUUUCCCUUUGCUCUCCAACAGAGGAUUGAGCAUCA

target: MSI1 full-length (mouse, UniProt Q61474 1-362); assay: nsRBNS (natural sequence RNA bind-n-seq); RBNS binding buffer (assumed for nsRBNS): 25 mM Tris pH 7.5, 150 mM KCl, 3 mM MgCl2, 0.01% Triton X-100, 500 ug/ml BSA, 20 U/ml SUPERase-In, 4 C; UNK is unkempt and MSI1 is Musashi-1; names of the RNAs are library labels; protein concentration not given here; high values mean tight binding
UniProt Q61474, sequence (Q61474 whole entry): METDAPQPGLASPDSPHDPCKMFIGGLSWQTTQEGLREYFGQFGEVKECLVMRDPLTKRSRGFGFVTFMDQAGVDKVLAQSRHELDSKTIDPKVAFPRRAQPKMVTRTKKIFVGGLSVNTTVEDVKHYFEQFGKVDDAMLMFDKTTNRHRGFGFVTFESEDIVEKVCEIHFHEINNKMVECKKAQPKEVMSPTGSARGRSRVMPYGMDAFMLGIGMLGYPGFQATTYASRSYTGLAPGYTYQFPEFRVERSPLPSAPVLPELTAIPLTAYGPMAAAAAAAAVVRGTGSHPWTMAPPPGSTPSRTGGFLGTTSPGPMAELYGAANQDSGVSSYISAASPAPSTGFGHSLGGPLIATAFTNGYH

In order of falling binding signal:
1. B10  11.4 enrichment R
2. B19  9.98 enrichment R
3. B17  7.3 enrichment R
4. B14  1.36 enrichment R
5. B3  0.74 enrichment R
6. B9  0.677 enrichment R
7. B6  0.646 enrichment R
8. B8  0.639 enrichment R
9. B13  0.612 enrichment R
10. B20  0.598 enrichment R
11. B12  0.591 enrichment R
12. B1  0.583 enrichment R
13. B7  0.51 enrichment R
14. B5  0.498 enrichment R
15. B2  0.415 enrichment R
16. B11  0.403 enrichment R
17. B21  0.385 enrichment R
18. B4  0.382 enrichment R
19. B16  0.371 enrichment R
20. B18  0.371 enrichment R
21. B15  0.37 enrichment R
22. B22  0.317 enrichment R
